For assay [1], the target named is T1, B3 transcription factor from the ARF5 (Auxin Response Factor 5), BiFC fusion (UniProt P93024).
T1 sequence: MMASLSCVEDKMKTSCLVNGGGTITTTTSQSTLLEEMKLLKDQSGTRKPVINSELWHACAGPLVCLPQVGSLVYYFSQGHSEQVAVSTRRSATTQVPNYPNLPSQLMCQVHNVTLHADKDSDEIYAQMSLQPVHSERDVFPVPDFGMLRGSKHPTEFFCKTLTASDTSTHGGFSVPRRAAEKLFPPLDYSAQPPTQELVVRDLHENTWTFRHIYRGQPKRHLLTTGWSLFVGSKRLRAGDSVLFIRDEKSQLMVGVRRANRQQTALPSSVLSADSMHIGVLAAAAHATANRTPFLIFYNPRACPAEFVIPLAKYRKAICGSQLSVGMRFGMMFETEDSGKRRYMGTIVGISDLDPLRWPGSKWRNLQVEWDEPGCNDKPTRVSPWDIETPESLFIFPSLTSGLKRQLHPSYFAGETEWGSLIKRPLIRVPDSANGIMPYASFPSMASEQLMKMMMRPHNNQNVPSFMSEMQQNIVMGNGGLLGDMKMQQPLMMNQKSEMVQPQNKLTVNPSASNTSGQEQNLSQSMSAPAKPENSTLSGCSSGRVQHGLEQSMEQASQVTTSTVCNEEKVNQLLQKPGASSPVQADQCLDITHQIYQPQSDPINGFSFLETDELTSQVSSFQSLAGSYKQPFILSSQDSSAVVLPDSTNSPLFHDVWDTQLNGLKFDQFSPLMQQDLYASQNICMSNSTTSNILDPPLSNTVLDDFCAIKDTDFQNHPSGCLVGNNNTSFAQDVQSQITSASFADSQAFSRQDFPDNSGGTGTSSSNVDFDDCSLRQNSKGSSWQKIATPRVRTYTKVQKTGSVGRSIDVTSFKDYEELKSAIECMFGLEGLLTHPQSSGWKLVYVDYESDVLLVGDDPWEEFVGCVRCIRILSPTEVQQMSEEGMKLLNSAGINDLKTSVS
As to the kind of experiment: split reporter; BiFC in Nicotiana benthamiana leaf cells agroinfiltrated with YFPct and YFPnt fusions; fluorescence visualized 72 h after inoculation; reciprocal orientations also performed.

Assay [2] concerns the target T2, C-TERMINAL DOMAIN PHOSPHATASE-LIKE1 (CPL1), BiFC fusion (Arabidopsis thaliana) (UniProt Q5YDB6).
T2 sequence: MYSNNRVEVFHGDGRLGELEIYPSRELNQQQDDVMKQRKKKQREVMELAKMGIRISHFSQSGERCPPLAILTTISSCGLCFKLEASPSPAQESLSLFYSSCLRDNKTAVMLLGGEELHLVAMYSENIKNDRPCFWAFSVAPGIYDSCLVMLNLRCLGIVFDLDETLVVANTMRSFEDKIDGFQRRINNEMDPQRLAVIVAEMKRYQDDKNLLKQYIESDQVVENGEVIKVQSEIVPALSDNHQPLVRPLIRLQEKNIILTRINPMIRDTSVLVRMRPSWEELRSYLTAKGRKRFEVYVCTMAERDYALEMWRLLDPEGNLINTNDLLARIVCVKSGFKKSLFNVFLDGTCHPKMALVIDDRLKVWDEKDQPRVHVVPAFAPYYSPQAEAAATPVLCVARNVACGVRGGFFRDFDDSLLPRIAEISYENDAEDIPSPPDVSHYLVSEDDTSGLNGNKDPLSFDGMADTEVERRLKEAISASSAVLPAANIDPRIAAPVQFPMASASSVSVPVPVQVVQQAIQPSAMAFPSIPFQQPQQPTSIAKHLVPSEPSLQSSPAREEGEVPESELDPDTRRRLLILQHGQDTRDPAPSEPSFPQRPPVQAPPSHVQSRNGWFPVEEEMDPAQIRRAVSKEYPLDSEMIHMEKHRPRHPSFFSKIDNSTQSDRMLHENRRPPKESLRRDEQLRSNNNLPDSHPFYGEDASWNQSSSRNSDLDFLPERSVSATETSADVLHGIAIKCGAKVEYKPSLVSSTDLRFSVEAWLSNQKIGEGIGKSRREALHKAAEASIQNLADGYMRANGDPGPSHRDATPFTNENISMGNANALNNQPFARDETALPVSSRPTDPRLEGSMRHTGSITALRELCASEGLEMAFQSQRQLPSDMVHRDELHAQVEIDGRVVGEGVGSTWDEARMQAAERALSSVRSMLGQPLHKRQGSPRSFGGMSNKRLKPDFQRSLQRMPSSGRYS
The description is as above.

In assay [3] the target is T3, C-TERMINAL DOMAIN PHOSPHATASE-LIKE1 (CPL1), yeast two-hybrid fusion (Arabidopsis thaliana) (UniProt Q5YDB6).
T3 sequence: T2 sequence
The assay is described as follows: two-hybrid; yeast strain EGY48 cotransformed with pGilda and pB42AD constructs; induction with galactose and raffinose; X-gal on plates and ONPG beta-galactosidase liquid assays.

These are yes or no findings as the source states them, for the method shown. For part of these data: Binding seen in cells or lysates may run through a third protein. Some results given as binding are weak or reduced against the parent protein; the word gives no strength. Where a sequence is shown, tags or fusion partners need not be part of it.

B1: REGULATOR OF GENE EXPRESSION 3 (RCF3), BiFC fusion (protein, UniProt Q8W4B1 1-652)
chain: MERSRSKRNYHYDQDYDGDSMPRSKPRYNNNYHFGGGGGGNNRYRGGGGGGGGNGRPSKSHPETMATTTYRILCHDAKAGGVIGKSGTIIKSIRQHTGAWINVHELVPGDAERIIEISDNRRRDPDGRMPSFSPAQEALFSVHDRILESEAQFGYGGPPPEEEEDYGGVRPGGGRVVTRLVVSRMHVGCLLGKGGKIIEQMRIETKTHIRILPRESNLPRCVSLSEEIVQIVGELNAVKNALAIVSSRLRESQHRDRSNFQGRSHSPERSFAAAGDDYMPQLRRQSSDRFPRGNFRNNNFSSRQSNYAEEAPAVPVGENVYSEELVFQILCPADKIVRVVGESQGIIDLLQNEIGVDVRVSDPVAGSDEQIITISSEEAPDDPFFPAQEALLHIQTQIIDLIPDKDNLITTRLLVPSRDSICLEGKAGSVSEISRLTGTSVQILAREEIPRCASINDVVIQITGEIRAAREALVELTLLLRSHMFKELSQKETPPASTSTTGPLEGVAGVMEVASSNNTIQSREGPTSSNLNLQQVSTILPQFKEGFGSVAKAGESEHREEVPVTTSRMAVPLVTRSTLEVVLPEAVVPKLVTKSRNKLAQISEWSGASVTIVEDRPEETQNIIRISGTPEQAERAQSLLQGFILSIQEDGP
In the case of B1, the binding entry in assay [1] is recorded as “no binding”; in assay [2], “binds”.

B2: REGULATOR OF GENE EXPRESSION 3 (RCF3), yeast two-hybrid fusion (protein, UniProt Q8W4B1 1-652)
chain: B1 chain
Consider B2, for which the binding entry in assay [3] was “binds”.

B3: PEPPER (PEP), BiFC fusion (protein, UniProt Q9SZH4 1-495)
chain: MAAVADSVENNGSINLPENENLIPAGFSAAALLDENSGAFPELNQPDSLAAAETTFPDTNDSAEERWPGWPGDCVFRMIVPVTKVGAIIGRKGDFIKKMCEETRARIKVLDGPVNTPDRIVLISGKEEPEAYMSPAMDAVLRVFRRVSGLPDNDDDDVQNAGSVFSSVRLLVASTQAINLIGKQGSLIKSIVENSGASVRILSEEETPFYAAQDERIVDLQGEALKILKALEAIVGHLRRFLVDHTVVPLFEKQYLARVSQTRQEEPLAESKSSLHTISSNLMEPDFSLLARREPLFLERDSRVDSRVQPSGVSIYSQDPVLSARHSPGLARVSSAFVTQVSQTMQIPFSYAEDIIGVEGANIAYIRRRSGATITIKESPHPDQITVEIKGTTSQVQTAEQLIQEFIINHKEPVSVSGGYARIDSGYVPAYPPQLSNRQEPLPSTYMGTEPVQYRPTAYSQLGGPSTYTPTLTGQTYGSEYRPASDVGGYSSYNL
In the case of B3, the binding result is “no binding” in assay [1] and “binds” in assay [2].

B4: PEPPER (PEP), yeast two-hybrid fusion (protein, UniProt Q9SZH4 1-495)
chain: B3 chain
Turning to B4, in assay [3], the binding result is reported as “binds”.

B5: HUA1, BiFC fusion (protein, UniProt Q941Q3 1-524)
chain: MAHRQLYSYALQPSYAAAASTVSPAPPPPQQPLPPKTGLSSLYGSSADHYFPDTTYRFLARDGSEALSNYSGTLASSSSMYHHLPNTTASHLAYPQLLQHQEVAWPPGVEVPGAASAVEPLPPGVKRTSEALYYPTLLGAHNTIGQTEAWYTTDYFTKRPKLESTSHLPIYPQRAGEKDCTHYMQTRTCKFGESCRFDHPIWVPEGGIPDWKEAPVVPNEEYPERPGEPDCPYYIKTQRCKYGSKCKFNHPREEAAVSVETQDSLPERPSEPMCTFYMKTGKCKFGLSCKFHHPKDIQLPSSSQDIGSSVGLTSEPDATNNPHVTFTPALYHNSKGLPVRSGEVDCPFYLKTGSCKYGATCRYNHPERTAFIPQAAGVNYSLVSSNTANLNLGLVTPATSFYQTLTQPTLGVISATYPQRPGQSECDYYMKTGECKFGERCKFHHPADRLSAMTKQAPQQPNVKLSLAGYPRREGALNCPYYMKTGTCKYGATCKFDHPPPGEVMAKTTSEADAAGATNTDTTQ
With B5, the binding result in assay [1] is “no binding”; in assay [2], “binds”.

B6: HUA1, yeast two-hybrid fusion (protein, UniProt Q941Q3 1-524)
chain: B5 chain
Regarding B6, the binding entry in assay [3] is on record as “binds”.

The record behind these values is PMC5785034.
